The values below come from publication PMC10258805, “Nonpeptidic Oxazole-Based Prolyl Oligopeptidase Ligands with Disease-Modifying Effects on α-Synuclein Mouse Models of Parkinson’s Disease” (Journal of Medicinal Chemistry, 2023).

One data set has as its system mouse primary neurons. Briefly: Cell viability (MTT) in mouse primary neurons. The format is cell-based. The note with it: up to 100 μM, 48 h. Here is the method:
Pure primary mouse cortical neurons were obtained from C57BL/6JRccHsd mice (WT) (P1). Cortical tissue was dissected out and dissociated in ice-cold Hank’s Balanced Salt Solution (HBSS) medium (#14175, ThermoFisher Scientific) containing trypsin (0.25 mg/mL) and DNAse (5 U/mL). After centrifugation, cortical neurons were resuspended in Neurobasal Medium (NBM; #21103049, ThermoFisher Scientific) containing 2% (v/v) B27 (#17504044, ThermoFisher Scientific), 1% (v/v) penicillin–streptomycin solution, 100 μg/mL Primocin (#ant-pm-1, InvivoGen, Toulouse, France), and 2 mM glutamine (#25030081, ThermoFisher Scientific) and seeded onto poly-L-lysine (#p4707, Sigma)-coated cell culture plates at an appropriate density (40,000 cells/well to 96-well plates). After 24 h seeding, the medium was half-changed, and neurons were maintained at 37 °C in a 5% CO2 incubator. The neurons were cultured for 7 days for experimental use.
Toxicity testing of selected compounds […]
The same column and gradient was used with UPLC-HDMS analysis of the metabolites of HUP-55, as for the analysis of HUP-55 detailed in the experimental section of the article. The analyses were performed with ESI (+) resolution mode and the exact masses were analysed with UPLC-Synapt G2 QTOF/MS (Waters). […]

Data set [1] is described as follows: Stability studies (NMR, MS, polarimetry, long-term monitoring).

Regarding `Cc1nc(CCCc2ccccc2)oc1N1CCC[C@H]1C#N` [HUP-55, (S)-1-(4-Methyl-2-(3-phenylpropyl)oxazol-5-yl)pyrrolidine-2-carbonitrile], in the data set with mouse primary neurons, the “toxicity (cell viability)” value is reported as “None of the compounds caused any toxicity”. The “hydrolysis or decomposition of the oxazole ring (NMR stability)” value in data set [1] (NMR sample in DMSO-d6 observed over 2 months) is “not observed”. Further, the “hydrolysis or decomposition of the oxazole ring (MS stability)” value in data set [1] (conditions of the PREP inhibition assay, analyzed by MS) was “not observed”.
